# Some of the results follow.
# B1: NESD (Drosophila melanogaster), NP_610025.1 (protein)
# chain: MGHHHHHHSSGVDLGTENLYFQSMMEVFTFEKSYLERLKEAEAVLSWEGAVMPASQVRSEWKSYVELKIEPAGWQAIWKIPRVICEDLKLRYPTIVYGYVEQVIFDELKAVFVVTAVQDSDVHLPESNEVSLVELWPTVQQENAALNVDTTAECIDRLRFFYTHVWMPWDKDYDDDRDWVQQHLQARIQLVCDLSKNRLPRPLALHMRTLLAEAKYIQQRLDYLELDLSDAESDDEAVELNDSVAEPARKQSKAGSANGCLNVSSLPVTDLMCLHLRMAIIRSEFEILENPEMRRAYSELQSNSLKRLRCSSGRTRQSEDLLVERNSISHVVTLPGKLQQQLELLKLAQTLVKPESKVQLSNTLQDVLSICQSNDDILLSPGEHTIKFLEHLNDNGSLRGLTQPEAILSPAADLSLLPVVCSSDEDSTLLVIDGDYTLSELVLDCRHVRRGILLRNGTLTMRGCRLLGDGSSSTQEGIVCMPGASVELKSCLIENFAVGVSMRPKSSAELGSVQFKTCKTGLELLEKSASVNLQGSKCSFENCALGILADGFVLGEQRTEKVLVLNKFSELQRYNEDNLLGNCSFYNCKKNVRVFNESGQLLAQRSHQQLLEDELGGENKENIQLV
# Legend:
# Assay in all cases: glycan array binding signal (z-score within array); higher = stronger binding
# Settings in all cases: glycan notation: IUPAC condensed, linker removed
# Fuc(a1-2)Gal = target: Fuc(a1-2)Gal
# How it was run: (§1)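 Glycan array data came from 3228 arrays in the Consortium for Functional Glycomics database, and only arrays with an available protein sequence were kept. Glycan names were put into IUPAC-condensed notation, and columns mapping to the same glycan were averaged. The binding signal is a within-array Z-score, averaged across arrays of one protein sequence run at different concentrations or buffers and across linkers. A negative Z-score can be read as non-binding.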
# Fuc(a1-2)Gal(b1-3)GalNAc = target: Fuc(a1-2)Gal(b1-3)GalNAc
# How it was run: as §1
# [1] = target: Fuc(a1-2)Gal(b1-3)GalNAc(b1-3)Gal
# How it was run: as §1
# [2] = target: Fuc(a1-2)Gal(b1-3)GalNAc(b1-3)Gal(a1-4)Gal(b1-4)Glc
# How it was run: as §1
# [3] = target: Fuc(a1-2)Gal(b1-3)GalNAc(b1-4)[Neu5Ac(a2-3)]Gal(b1-4)Glc
# How it was run: as §1
# Fuc(a1-2)Gal(b1-3)GlcNAc = target: Fuc(a1-2)Gal(b1-3)GlcNAc
# How it was run: as §1
# [4] = target: Fuc(a1-2)Gal(b1-3)GlcNAc(b1-3)Gal(b1-4)Glc
# How it was run: as §1
# [5] = target: Fuc(a1-2)Gal(b1-3)[Fuc(a1-4)]GlcNAc
# How it was run: as §1
# Fuc(a1-2)Gal(b1-4)Glc = target: Fuc(a1-2)Gal(b1-4)Glc
# How it was run: as §1
# Fuc(a1-2)Gal(b1-4)Glc6S = target: Fuc(a1-2)Gal(b1-4)Glc6S
# How it was run: as §1
# Fuc(a1-2)Gal(b1-4)GlcNAc = target: Fuc(a1-2)Gal(b1-4)GlcNAc
# How it was run: as §1
# [6] = target: Fuc(a1-2)Gal(b1-4)GlcNAc(b1-3)Gal(b1-4)GlcNAc
# How it was run: as §1
# [7] = target: Fuc(a1-2)Gal(b1-4)GlcNAc(b1-3)Gal(b1-4)GlcNAc(b1-3)Gal(b1-4)GlcNAc
# How it was run: as §1
# [8] = target: Fuc(a1-2)Gal(b1-4)GlcNAc6S
# How it was run: as §1
# [9] = target: Fuc(a1-2)Gal(b1-4)[Fuc(a1-3)]GlcNAc
# How it was run: as §1
# [10] = target: Fuc(a1-2)Gal(b1-4)[Fuc(a1-3)]GlcNAc(b1-3)Gal(b1-4)[Fuc(a1-3)]GlcNAc
# How it was run: as §1
# [11] = target: Fuc(a1-2)Gal(b1-4)[Fuc(a1-3)]GlcNAc(b1-3)Gal(b1-4)[Fuc(a1-3)]GlcNAc(b1-3)Gal(b1-4)[Fuc(a1-3)]GlcNAc
# How it was run: as §1
# Fuc(a1-2)Gal6S(b1-4)Glc = target: Fuc(a1-2)Gal6S(b1-4)Glc
# How it was run: as §1
# [12] = target: Fuc(a1-2)Gal6S(b1-4)Glc6S
# How it was run: as §1
# [13] = target: Fuc(a1-2)Gal6S(b1-4)GlcNAc
# How it was run: as §1
# Fuc(a1-2)[Gal(a1-3)]Gal = target: Fuc(a1-2)[Gal(a1-3)]Gal
# How it was run: as §1
# [14] = target: Fuc(a1-2)[Gal(a1-3)]Gal(b1-3)GlcNAc
# How it was run: as §1
# [15] = target: Fuc(a1-2)[Gal(a1-3)]Gal(b1-4)Glc
# How it was run: as §1
# [16] = target: Fuc(a1-2)[Gal(a1-3)]Gal(b1-4)GlcNAc
# How it was run: as §1
# [17] = target: Fuc(a1-2)[Gal(a1-3)]Gal(b1-4)[Fuc(a1-3)]GlcNAc
# How it was run: as §1
# [18] = target: Fuc(a1-2)[Gal(a1-4)]Gal(b1-4)GlcNAc
# How it was run: as §1
# [19] = target: Fuc(a1-2)[GalNAc(a1-3)]Gal
# How it was run: as §1
# [20] = target: Fuc(a1-2)[GalNAc(a1-3)]Gal(b1-3)GlcNAc
# How it was run: as §1
# [21] = target: Fuc(a1-2)[GalNAc(a1-3)]Gal(b1-4)Glc
# How it was run: as §1
# [22] = target: Fuc(a1-2)[GalNAc(a1-3)]Gal(b1-4)GlcNAc
# How it was run: as §1
binder,measurement,setting,value
B1,glycan array binding signal (z-score),Fuc(a1-2)Gal,0.437
same,glycan array binding signal (z-score),Fuc(a1-2)Gal(b1-3)GalNAc,-0.2
same,glycan array binding signal (z-score),[1],-0.402
same,glycan array binding signal (z-score),[2],-0.284
same,glycan array binding signal (z-score),[3],0.056
same,glycan array binding signal (z-score),Fuc(a1-2)Gal(b1-3)GlcNAc,-0.474
same,glycan array binding signal (z-score),[4],0.799
same,glycan array binding signal (z-score),[5],-0.397
same,glycan array binding signal (z-score),Fuc(a1-2)Gal(b1-4)Glc,-0.347
same,glycan array binding signal (z-score),Fuc(a1-2)Gal(b1-4)Glc6S,-0.269
same,glycan array binding signal (z-score),Fuc(a1-2)Gal(b1-4)GlcNAc,-0.028
same,glycan array binding signal (z-score),[6],-0.008
same,glycan array binding signal (z-score),[7],0.571
same,glycan array binding signal (z-score),[8],0.418
same,glycan array binding signal (z-score),[9],-0.379
same,glycan array binding signal (z-score),[10],-0.007
same,glycan array binding signal (z-score),[11],0.007
same,glycan array binding signal (z-score),Fuc(a1-2)Gal6S(b1-4)Glc,-0.164
same,glycan array binding signal (z-score),[12],0.415
same,glycan array binding signal (z-score),[13],0.152
same,glycan array binding signal (z-score),Fuc(a1-2)[Gal(a1-3)]Gal,-0.145
same,glycan array binding signal (z-score),[14],-0.382
same,glycan array binding signal (z-score),[15],-0.426
same,glycan array binding signal (z-score),[16],-0.24
same,glycan array binding signal (z-score),[17],-0.398
same,glycan array binding signal (z-score),[18],-0.283
same,glycan array binding signal (z-score),[19],-0.285
same,glycan array binding signal (z-score),[20],-0.299
same,glycan array binding signal (z-score),[21],-0.185
same,glycan array binding signal (z-score),[22],-0.226
